The supplement of paper PMC12355420
Where a name gives a salt, the structure may show the parent alone. This is one part of the list. Single values are uncertain, as repeats are few or missing.

Tested on: HeLa VPS33A reporter cells
Experiment: relative cell viability (CellMask signal) vs DMSO (fraction of DMSO); HeLa model of a glycosaminoglycan (GAG) storage disease; KI is knock-in and KO knock-out; SDC1 is syndecan 1; higher = less cytotoxic
Details: 50 µM; 24 h
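Further: primary screen of an FDA-approved drug library in HeLa reporter cells in 96-well format, CellMask signal normalized to DMSO-treated wells set as 1, under 0.5 deemed highly cytotoxic.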

Structure (SMILES) | relative cell viability
COc1ccc(CC2c3cc(OC)c(OC)cc3CC[N+]2(C)CCC(=O)OCCCCCOC(=O)CC[N+]2(C)CCc3cc(OC)c(OC)cc3C2Cc2ccc(OC)c(OC)c2)cc1OC (stereo not given) [Atracurium Besylate] | 0.00591
CCOC(=O)C1=C(C)NC(C)=C(C(=O)OC)C1c1cccc(Cl)c1Cl (stereo not given) [Felodipine] | 0.0199
CC(Cc1ccc(O)c(O)c1)C(C)Cc1ccc(O)c(O)c1 (stereo not given) [Nordihydroguaiaretic acid] | 0.00593
N.N.O=C([O-])C[O-].[Pt+2] [Nedaplatin] | 0.231
CCCCCCCCCCCC[N+](C)(C)CCOc1ccccc1 [Domiphen Bromide] | 0.00555
CC[C@]1(O)C[C@@H]2CN(CCc3c([nH]c4ccccc34)[C@@](C(=O)OC)(c3cc4c(cc3OC)N(C)[C@H]3[C@@](O)(C(=O)OC)[C@H](OC(C)=O)[C@]5(CC)C=CCN6CC[C@]43[C@@H]65)C2)C1 [vinblastine] | 0.258
Cc1coc2c1C(=O)C(=O)c1c-2ccc2c(C)cccc12 [Tanshinone I] | 0.0331
CN(C/C=C/C#CC(C)(C)C)Cc1cccc2ccccc12 [Terbinafine] | 0.343
COc1cccc2c1C(=O)c1c(O)c3c(c(O)c1C2=O)C[C@@](O)(C(C)=O)C[C@@H]3O[C@H]1C[C@H](N)[C@H](O)[C@H](C)O1 [Daunorubicin HCl] | 0.00618
CC(C)c1cc(C(=O)N2Cc3ccc(CN4CCN(C)CC4)cc3C2)c(O)cc1O | 0.0119
